Laboratory results as given in PubChem BioAssay AID463173 (ICCB-Longwood Screening Facility, Harvard Medical School, 2010).
Hit rate of the full screen: of about 52,000 compounds, about 1,700 (3.3%) were called active. Rule as the data show it: active = survival mostly below about 52% (no sharp cut-off); inactive = mostly above about 56%. The list shows a part of the results.

What follows are compounds tested on Wild type (assay: growth inhibition of S. aureus wild type versus tarO mutant, primary screen, teichoic acid synthesis inhibitors, RN4220, OD600 (AID 463173)). Conditions: S. aureus RN4220 wild type/DeltatarO growth, OD600, 18 h, stronger effect = lower value, screened at 18.75 µg/mL (by protocol).

| Structure (SMILES) | survival |
| --- | --- |
| CCSc1ncc(Cl)c(C(=O)N(Cc2ccccc2)Cc2ccco2)n1 | inactive: 123% |
| CCCOc1ccc(NC(=O)CC2C(=O)N(c3ccc(C)cc3)C(=O)N2C2CCCC2)cc1 (configuration not stated) | inactive: 81% |
| O=C(CN1C(=O)CCc2cc(S(=O)(=O)N3CCOCC3)ccc21)NCc1ccccc1Cl | inactive: 65% |
| O=C(CSc1nc2c([nH]c3ccccc32)c(=O)n1-c1ccc(F)cc1)NCc1ccco1 | inactive: 88% |
| CC1=C(C(=O)Nc2cc(Cl)ccc2C)C(c2ccco2)n2ncnc2N1 (configuration not stated) | inactive: 81% |
| CC(CC(=O)NC1CCCC1)c1ccccc1 (configuration not stated) | inactive: 108% |
| CCSc1nnc2c(n1)OC(c1sccc1C)N(C(C)=O)c1ccccc1-2 (configuration not stated) | inactive: 70% |
| Cc1ccc(OCC(=O)Nc2ccc3nc(SCC(N)=O)sc3c2)cc1 | inactive: 84% |
| COc1ccc(Cn2c(=O)c3oc4ccccc4c3n(Cc3cccc(F)c3)c2=O)cc1 | inactive: 94% |
| CCOC(=O)C1CCCN(S(=O)(=O)c2cc3c(cc2C)NC(=O)CO3)C1 (configuration not stated) | inactive: 84% |
| O=C(NCc1cccc(F)c1)c1ccc2nc(N3CCCCC3)sc2c1 | inactive: 89% |
| Cc1ccc(NC(=O)C2CCCN(S(=O)(=O)c3c(C)n[nH]c3C)C2)cc1Cl (configuration not stated) | inactive: 90% |
| COC(=O)c1c(C)oc2ccc(N(C(=O)Oc3ccccc3)S(=O)(=O)c3ccc(C(C)(C)C)cc3)cc12 | inactive: 78% |
| O=C(NCCc1ccc(Cl)cc1)c1ccc2c(c1)N(Cc1c(F)cccc1Cl)C(=O)CS2 | inactive: 76% |
| Cc1c(C)n(C)c2ccc(C(=O)NCCc3ccc(Cl)cc3)cc12 | inactive: 74% |
| CCOC(=O)COc1ccc(CC)cc1C(=O)c1ccn2nc(-c3ccc(Cl)cc3)cc2n1 | inactive: 72% |
| Cc1ccc(-n2nc3ccc(NC(=O)Cc4ccc(Cl)cc4)cc3n2)cc1 | inactive: 97% |
| CCOC(=O)c1c(NC(=O)C(C)Sc2cn(CCNC(=O)c3ccccc3OC)c3ccccc23)sc2c1CCC2 (configuration not stated) | inactive: 90% |
| COC(=O)c1sc2cccc(F)c2c1S(=O)(=O)NCc1ccc(Cl)cc1 | inactive: 81% |
| CCC1Oc2ccc(C)cc2N(CC(=O)N(Cc2ccc(F)cc2)CC2CCCO2)C1=O (configuration not stated) | inactive: 109% |
| CCOc1ccc(NC(=O)Cn2c(=O)n(CCCC(=O)NCc3ccc4c(c3)OCO4)c(=O)c3ccccc32)cc1 | inactive: 97% |
| Cc1ccc(CSc2ncc(Cl)c(C(=O)Oc3ccc(F)cc3)n2)cc1 | inactive: 89% |

| Structure (SMILES) | survival |
| --- | --- |
| COc1ccc(-c2noc(N3CCN(c4ccc(C)cc4)C(C)C3)n2)cc1OC (configuration not stated) | inactive: 78% |
| COc1cccc(CNC(=O)CSC2=Nc3ccccc3C3=NC(C)C(=O)N23)c1OC (configuration not stated) | inactive: 135% |
| O=C(Cn1c(C(=O)N2CCOCC2)cc2sccc21)c1ccccc1 | inactive: 110% |
| CCCCS(=O)(=O)c1oc(-c2ccc(F)cc2)nc1S(=O)(=O)c1ccccc1 | active: 7% |
| Fc1ccc(-c2cc(C(F)(F)F)nc(NCc3ccccc3)n2)cc1 | inactive: 93% |
| COc1ccccc1N1CCN(CCCNC(=O)c2cnn(-c3ccc(C)c(C)c3)c2C2CCN(C(=O)OC(C)(C)C)CC2)CC1 | inactive: 68% |
| COc1ccccc1CNC(=O)c1cnc2c(-c3ccccc3)c(C)nn2c1C | inactive: 70% |
| O=C(c1ccc2c(c1)N(Cc1ccc(F)cc1)C(=O)c1ccccc1S2(=O)=O)N1CCN(c2ccccn2)CC1 | inactive: 153% |
| COc1ccc(C(=O)Nc2ccccc2-c2nc(-c3ccc(OC)cc3)no2)cc1 | inactive: 89% |
| O=C(c1cnc(N2CCCCC2)c2ccccc12)N1CCN(c2ccc(Cl)cc2)CC1 | inactive: 73% |
| CCc1nn(CC(=O)N2CCN(c3ccc(Cl)cc3)CC2)c(=O)c2cc3occc3n12 | inactive: 84% |
| CCn1c(=O)n(-c2cccc(Cl)c2)c(=O)c2sc3ccccc3c21 | inactive: 86% |
| O=C(Nc1ccc(Cl)cc1)c1cc2nc(-c3ccc4c(c3)OCO4)cc(C(F)(F)F)n2n1 | inactive: 77% |
| CC(=O)c1ccc(N2CCN(C(=O)c3cc4ccc5cccnc5c4[nH]3)CC2)cc1 | inactive: 65% |
| Cc1ccc(C)c(S(=O)(=O)NCCc2csc(-c3ccc(Cl)cc3)n2)c1 | inactive: 78% |
| Cc1cccc(NC(=O)C2CCCN(S(=O)(=O)c3ccc4c(c3)oc(=O)n4C)C2)c1 (configuration not stated) | inactive: 82% |
| O=S(=O)(NCCS(=O)(=O)N1CCN(c2ccccc2)CC1)c1ccc(Cl)cc1 | inactive: 82% |
| Cc1sc2c(c1C)c(=O)n(CCc1ccccc1)c(=O)n2Cc1ccc(F)cc1 | inactive: 50% |
| COc1ccc(CCN2CC(C(=O)NCCc3ccccc3)CC2=O)cc1OC (configuration not stated) | inactive: 81% |
| COc1ccc(OC)c(/C=C(\C#N)c2nc3ccccc3c(=O)[nH]2)c1 | inactive: 134% |
| O=C(CCC(=O)c1ccccc1)Nc1ccc(F)c(Cl)c1 | inactive: 73% |
| Cc1ccc(-c2noc(=O)n2CC(=O)Nc2ccc(S(=O)(=O)N3CCCC3)cc2)cc1 | inactive: 123% |

| Structure (SMILES) | survival |
| --- | --- |
| CCCC(=O)C1=C(c2cccc(OC)c2)N(C(=O)CCC)n2c(C)nnc2S1 | inactive: 80% |
| Cc1cc(C)c2sc(N(Cc3cccnc3)C(=O)CCOc3ccccc3)nc2c1 | inactive: 111% |
| C=CCSc1nc2sc3c(c2c(=O)n1CC=C)CCCC3 | inactive: 99% |
| CCOC(=O)c1ccc2c(c1)[C@@H]1C=CC[C@@H]1[C@H](c1cccc(OC)c1OC)N2 | active: 0% |
| Cn1ccc2c(OCC(=O)Nc3ccc([N+](=O)[O-])cc3)cccc2c1=O | inactive: 131% |
| CSc1ccc(CNC(=O)CN2C(=O)C3CCCCN3c3ccc(C(=O)N4CCCC4)cc32)cc1 (configuration not stated) | inactive: 92% |
| CCOC(=O)C1CCN(C(=O)c2ccc3c(c2)sc2nc(-c4ccc(C)cc4)cn23)CC1 | inactive: 118% |
| O=C(Cn1nc(-c2nccc3ccccc23)oc1=O)N1CCCc2ccccc21 | inactive: 103% |
| COc1ccc(OCc2nnc(SCC(=O)N(C3CCCCC3)C3CCCCC3)o2)cc1 | inactive: 98% |
| CCc1ccc(NC(=O)C2CCN(S(=O)(=O)c3c(C)noc3/C=C/c3ccco3)CC2)cc1 | inactive: 73% |
| FC(F)(F)c1ccc(-c2noc(-c3ccccc3Br)n2)cc1 | inactive: 89% |
| COc1ccc(NC(=O)c2cc(S(=O)(=O)NCCC3=CCCCC3)ccc2F)cc1 | inactive: 87% |
| COC(=O)c1cc2sc(C)cc2n1CC(=O)Nc1cccc(SC)c1 | inactive: 86% |
| Cc1cccc(OCC(=O)Nc2ccc3oc(-c4ccccc4F)nc3c2)c1 | inactive: 81% |
| O=S(=O)(NCc1nc2cccnc2n1Cc1ccc(F)cc1)c1ccc(Cl)s1 | active: -6% |
| COc1ccc(-c2nc3cc(C(C)C)ccc3o2)cc1NC(=O)c1ccc(C)c(Cl)c1 | active: 5% |
| O=C(Cc1n[nH]c(=O)c2ccccc12)NCc1ccccc1 | inactive: 103% |
| Cc1ccc(CCNC(=O)c2ccc(CS(=O)(=O)Cc3cccc(C)c3)o2)cc1 | inactive: 70% |
| CCCCCC(=O)N(c1ccc(OCC)cc1)S(=O)(=O)c1ccc2c(c1)n(C)c(=O)n2C | inactive: 124% |
| COC(=O)C1CCN(S(=O)(=O)c2ccc(OC)cc2)CC1 | inactive: 102% |
| COc1ccc(CNc2ccc(-c3ccc(OC)cc3)nn2)cc1 | inactive: 114% |
| COc1ccc(Cn2ccc3nc(C)c(C(=O)N4CCN(c5ccccc5F)CC4)cc3c2=O)cc1 | inactive: 45% |

| Structure (SMILES) | survival |
| --- | --- |
| Cc1ccc(NC(=O)Cn2cc3c(n2)CCC(C)C3)cc1C (configuration not stated) | inactive: 94% |
| Cn1c(=S)[nH]c2c(c1=O)C1(CCCC1)Cc1ccccc1-2 | inactive: 99% |
| CCn1ccc2cc(S(=O)(=O)N3CCCN(C(=O)NCC(=O)OC)CC3)ccc21 | inactive: 128% |
| COc1cccc(-c2cc(C(F)(F)F)n3nc(C)c(-c4ccccc4)c3n2)c1 | inactive: 85% |
| Cn1c(NN)nc2ccccc2c1=O | inactive: 100% |
| Cc1ccccc1C(=O)NC1(C(F)(F)F)N=C(c2ccccc2)N(Cc2ccccc2)C1=O (configuration not stated) | inactive: 130% |
| Nc1ccc(Cc2nc3ccccc3[nH]2)cc1 | inactive: 102% |
| CCCCNC(=O)CSc1nc2cc3c(cc2c(=O)n1CCCCCC(=O)NCCc1ccc(OC)c(OC)c1)OCO3 | inactive: 67% |
| Cc1ccc2nc(N3CCC(C(=O)NCc4ccc(F)cc4)CC3)[nH]c2c1 | inactive: 70% |
| O=C(COc1ccccc1[N+](=O)[O-])Nc1cc(-c2nc3cc(Cl)ccc3o2)ccc1Cl | inactive: 79% |
| COC(=O)c1ccc(Oc2nc3c(c(=O)n(C)c(=O)n3C)n2C(C)C)cc1 | inactive: 60% |
| CCc1ccccc1N(C)C(=O)c1nn(C)c2c1CSc1ccccc1-2 | inactive: 84% |
| Cc1ccc2nc(COc3cccc(NC(=O)c4cccc(Cl)c4)c3)cc(=O)n2c1 | inactive: 79% |
| Cc1cc(C)c(S(=O)(=O)NCc2csc(-c3ccccc3)n2)c(C)c1 | inactive: 38% |
| CCC12CN3CC(C)(CN(C1)C3c1c[nH]c3ccc(OC)cc13)C2=O (configuration not stated) | inactive: 88% |
| OC1C2CN3CCN(C2)CC1(Cc1ccccc1)C3 (configuration not stated) | inactive: 110% |
| Cc1ccc2cccc(NC(=O)c3ccc(C#N)cc3F)c2n1 | inactive: 144% |
| CCN(CC)C(=O)c1sc2c(c1C)c(=O)n(-c1ccc(C)c(C)c1)c(=O)n2Cc1cccc(Cl)c1 | inactive: 65% |
| Cc1ccc(OCC(=O)Nc2ccc3nc(SCC(=O)N4CCOCC4)sc3c2)cc1C | inactive: 80% |
| CCOC(=O)C1CCCN(C(=O)CCS(=O)(=O)c2cc3c(cc2Cl)NC(=O)CO3)C1 (configuration not stated) | inactive: 96% |
| CCC(Sc1nc2cc3c(cc2c(=O)n1CCCC(=O)NCc1ccc(OC)cc1)OCO3)C(=O)NCCCOC (configuration not stated) | inactive: 69% |
